According to PubChem BioAssay AID1963576 (National Center for Advancing Translational Sciences (NCATS), 2024):
Screen size: about 46,000 compounds; about 60 (0.1%) were called active. Inconclusive results (about 3%) are left out. Calls come from the whole dose curve; as a rule, active = well fitted inhibition curve with a large enough effect; inconclusive = small, poorly fitted or top-dose-only effect; inactive = no such curve, though single readings can be large or run the other way. The list shows a part of the results.

Experiment: Primary qHTS assay for Inhibitors of ovarian cancer metastasis using an organotypic tumor microenvironment (TME) model.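 For activity change, negative = inhibition: plate controls were DMSO wells for no effect and tomatine positive control wells for full effect.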 Note: nearly all actives have a fitted effect of over 65% in size.
Conditions: SKOV3ip1-GFP adhesion/invasion on 3D omental model, fluorescence; series mostly up to 45.8 µM; activity change, negative = inhibition: at the top concentration
How it was run: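 qHTS, 4-pt dose (0.36-46 umol/L); SKOV3ip1-GFP, 1,200 cells/well, no FBS; primary omental fibroblast/mesothelial co-culture 48 h pre-grown; 2 h RT + 16 h 37 C; PBS wash, 4% PFA; GFP count 488/509 nm.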

Activity change, negative = inhibition, inactive:
CCCCNC(=O)c1ccc2c(c1)NC(=O)C(CS(=O)(=O)Cc1ccc(C)cc1)N2 (stereo unspecified) 6.73%
CC(=O)N1CCc2c(sc3c2c(=O)n(-c2ccc(C)cc2)c(=O)n3Cc2ccccc2C)C1 -23%
Cc1ccc(C(=O)Nc2ccc3oc(-c4ccccc4C)nc3c2)cc1 2.75%
Cc1cc(C(=O)NCc2ccccc2Cl)c2c(C)nn(-c3cccc(F)c3)c2n1 12.8%
Cc1ccc2oc(=O)n(CCNC(=O)Nc3ccc(Cl)cc3)c2c1 124%
O=C(NCC(c1ccco1)S(=O)(=O)c1cccs1)c1ccc(Cl)cc1 (stereo unspecified) 8.35%
COc1cc(OC)c(C2C(C(=O)Nc3ccccc3)=C(C)Nc3ncnn32)cc1OC (stereo unspecified) -9.89%
Cc1cc(Cl)ccc1NC(=O)CCCn1nc(C)c2c(C)n(-c3ccccc3)nc2c1=O 7.51%
CCC1CN(C(=O)Nc2cc(Cl)c(OC)cc2OC)c2ccccc2O1 (stereo unspecified) 31.9%
Cc1cc(C)cc(NC(=O)CSc2nc3sc4c(c3c(=O)[nH]2)CCCC4)c1 0.428%
CCN1CCN(c2oc(/C=C/c3cc(OC)c(OC)c(OC)c3)nc2C#N)CC1 -23.2%
CCCCN(C)S(=O)(=O)c1ccc(C(=O)Nc2ccc(-c3nc4ccc(C)cc4s3)cc2)cc1 -27.3%
CC(C)C(=O)OCc1cc(=O)n2nc(C3CC3)sc2n1 -24.6%
COc1cc(C2Nc3ccccc3-c3nnc(SCc4ccc(C)cc4)nc3O2)cc(OC)c1O (stereo unspecified) -9.78%
CCc1ccc(CNC(=O)c2cnc3c(C)cccn3c2=O)cc1 -4.83%
CCc1nn(CC(=O)NCCCc2ccccc2)c(=O)c2cc3ccccc3n12 7.62%
Cc1c(Cl)cccc1NC(=O)Cn1c(=O)n(Cc2nc(-c3ccccc3)no2)c(=O)c2cc3c(cc21)OCO3 11.6%
Cc1ccc(Cn2c(=O)c3cccnc3n(CC(=O)Nc3cc(Cl)ccc3C)c2=O)cc1 0.529%
CSc1ccc(CCNC(=O)c2cc3cc4cc(C)ccc4nc3s2)cc1 -5.56%
CCOc1ccc(N(C)C(=O)c2oc(=O)c3ccccc3c2-c2ccccc2)cc1 3.76%
CCc1ccc(-c2nc(CS(=O)CC(=O)NCCc3ccc(C)cc3)c(C)o2)cc1 (stereo unspecified) 0.716%
Cc1ccc(CN(C(=O)c2ccc(OCC(C)C)cc2)c2ccccn2)o1 -0.432%
CCOC(=O)c1noc2nc(C)n(CC(=O)Nc3cccc(OC)c3)c(=O)c12 -3.49%
Cc1ccc(N(CC(=O)N2CCN(c3cc(C)ccc3C)CC2)S(=O)(=O)c2c(C)nn(C)c2C)cc1 -1.45%
O=C(O)CC1c2ccccc2CCN1C(=O)Nc1cc(Cl)ccc1Cl (stereo unspecified) -1.48%
Cc1cccc2c1-c1sc(C(=O)Nc3ccc(F)cc3F)cc1CO2 -0.812%
CCc1ccc(S(=O)(=O)c2nnn3c2nc(N2CCN(c4ccccc4)CC2)c2cc(Cl)ccc23)cc1 8.64%
CCCCC1CCC(C(=O)N2CC(=O)Nc3ccc(Br)cc3C2c2ccc(F)cc2)CC1 (stereo unspecified) -7.99%
Cc1cc(Cl)ccc1-n1c(CCC(=O)O)ccc1-c1cccs1 -0.551%
CN(C(=O)Cn1nc(Cc2cccnc2)c2ccccc2c1=O)c1cccc(C(F)(F)F)c1 17.9%
Cc1ccc(CNC(=O)c2ccc(N3CCCC3)c(NC(=O)Nc3ccc(C)cc3)c2)cc1 1.43%
Cc1ccc(CNC(=O)C(=O)Nc2c3c(nn2-c2ccc(F)cc2)CSC3)cc1 -29.2%
Cc1ccc(NC(=O)CN2C(=O)COc3ccc(S(=O)(=O)N4CCCCCC4)cc32)c(C)c1 -2.04%
CCC(=O)OCc1cc(=O)n2nc(C3CC3)sc2n1 -19.7%
O=c1c2sc3ccccc3c2n(Cc2cccc(F)c2)c(=O)n1CCc1ccccc1 7.38%
CC(=O)Nc1cccc(-c2nc(-c3ccccc3)no2)c1 -9.84%
CCOC(=O)c1ccc(N2C(=O)c3n[nH]c(-c4ccco4)c3C2c2ccc(C(=O)OC)cc2)cc1 (stereo unspecified) 3.68%
O=C(c1ccc2c(c1)N(Cc1ccc(Cl)cc1)C(=O)c1ccccc1S2(=O)=O)N1CCCC1 -3.53%
CCCCCCC(=O)Nc1ccc2nc3c(=O)n(C)c(=O)n(C)c3nc2c1C -0.471%
CCCc1cnc2c(c1SCC(=O)NCc1ccc(C)cc1)c(=O)n(C)c(=O)n2C 13.5%
Cc1cc(C)cc(OCC(=O)Nc2cccc3cccnc23)c1 6.99%
COc1ccc(C)c2sc(NC(=O)c3ccc(S(=O)(=O)N(C)C)cc3)nc12 3.7%
CC(C)c1ccc(S(=O)(=O)N2CCN(Cc3cccc(F)c3)CC2)cc1 -2.46%
COc1ccccc1CCNC(=O)Cc1c(C)c2cc(Cl)c(O)cc2oc1=O 9.89%
COc1ccc(NC(=O)CSc2ncc3c(n2)-c2ccccc2N(Cc2ccc(C)cc2)S3(=O)=O)cc1Cl 3.53%
CCOC(=O)C1CCN(C(=O)c2cc3sc(C)cc3n2C)CC1 -2.3%
CCOc1ccc(-c2cccc(NS(=O)(=O)c3ccc(C)s3)c2)nn1 3%
O=C(CCC1N=C2c3ccccc3N=C(SCC(=O)Nc3cccc(Cl)c3)N2C1=O)NCc1ccco1 (stereo unspecified) 5.93%
CCCCOc1ccc(C(=O)Nc2ccc3c(c2)CCCN3C(=O)c2cccs2)cc1 0.041%
Cc1nc2nc(NC(=O)c3ccc(C(C)(C)C)cc3)[nH]n2c(=O)c1C 7.12%
CCOC(=O)C1CCC(CN(Cc2ccc(Cl)cc2)S(=O)(=O)c2cccc(Cl)c2C)CC1 (stereo unspecified) 1.27%
O=C(CSc1ncc(-c2ccccc2)[nH]1)Nc1ccccc1 -8.73%
CCOC(=O)C1CCN(C(=O)c2ccccc2NC(=O)c2nsc3ccccc23)CC1 25%
CCn1cc(C(=O)NCCCOC(C)C)c(=O)c2cc(S(=O)(=O)N3CCOCC3)ccc21 1.45%
CCc1ccc(OCC2c3cc(OC)c(OC)cc3CCN2C(=O)c2ccc(S(=O)(=O)N3CCCC3)cc2)cc1 (stereo unspecified) 0.358%
COC(=O)c1ccc2c(=O)n(CCCCCC(=O)NCCc3ccccc3)c(=O)[nH]c2c1 23.5%
COc1cccc(CN2C(=O)CN(C3CCCCC3)C(=O)C2c2ccc(OC(C)C)c(OC)c2)c1 (stereo unspecified) -24.5%
O=C(Cn1ccc2cc(S(=O)(=O)N3CCCCCC3)ccc21)NCc1ccccc1Cl 3.23%
COc1ccc(-c2nc(Cn3c(=O)cc(C)c4c(C)nn(-c5ccccc5)c43)c(C)o2)cc1OC -5.26%
O=C(CSc1nc2c([nH]c3ccccc32)c(=O)n1-c1ccccc1)Nc1ccc2c(c1)OCO2 5.27%
COc1ccc(N2CCN(C(CNS(=O)(=O)c3ccc(OC)c(C)c3)c3ccco3)CC2)cc1 (stereo unspecified) -1.94%
Cc1cccn2c(=O)c3cc(C(=O)NCC(C)C)sc3nc12 -16%
COc1ccc(C)cc1-n1c(-c2ccc(Cl)cc2)cc2c1CC(C)(C)CC2=O -17%
O=S(=O)(c1ccc(Cl)cc1)c1nnn2c1nc(NC1CCCC1)c1sccc12 -5.15%
CN(CCOc1ccc(CC2SC(=O)NC2=O)cc1)c1ccccn1 (stereo unspecified) -5.08%
O=C(NCCc1ccc(Cl)cc1)C1CCN(Cc2cc3ccccc3n2Cc2ccccc2)CC1 -8.62%
CCOc1ccc(NC(=O)c2c(C)oc3nc(C)nc(N4CCCC4)c23)cc1 19%
COc1cccc(C(=O)Nc2ccc3nc(SCC(=O)N(C)c4ccccc4)sc3c2)c1 -8.39%
Cc1ccc(CNC(=O)c2ccc(CSc3nc4ccncc4n3Cc3ccc(C)cc3)cc2)cc1 -10.9%
Fc1ccc(CN2CCc3nc(N4CCN(c5ccccc5F)CC4)ncc3C2)c(F)c1 -8.07%
Cc1ccc(Cc2nc3ccccc3nc2SCC(=O)N2CCC(C)CC2)cc1 3.22%
Cc1ccc(NC(=O)Cn2c(=O)n(-c3ccc(C)cc3)c(=O)c3c2cnn3C)cc1 -4.39%

outcome, inactive:
CCCN(C(=O)Nc1cn(CC(C)C)c(=O)c2ccccc12)c1ccc(F)cc1
COc1ccc(-c2noc(CC(=O)Nc3ccc(C)c(F)c3)n2)cc1
CCc1ccc(C2c3c(oc4cc(C)c(C)cc4c3=O)C(=O)N2c2nc(C)c(C(=O)OC)s2)cc1 (stereo unspecified)
Cc1ccc(Nc2cc(C)c(C#N)c3nc4ccccc4n23)c(C)c1
COC(=O)c1sccc1S(=O)(=O)N(CC(=O)Nc1ccccc1)c1ccccc1
Cc1c(Cl)cccc1NC(=O)C1CCN(c2nc3ccccc3[nH]2)CC1
CCCC(=O)Nc1cccc(-c2cn3c(C)csc3n2)c1
CC(C)c1cnc2c(c1SCC(=O)NC(C)(C)C)c(=O)n(C)c(=O)n2C
CCn1cc2c(n1)-c1c(oc(C(=O)Nc3ccc(Br)cc3F)c1C)CC2
CCc1c(C)c2ccc(O)c(CN3CCN(c4cc(Cl)ccc4C)CC3)c2oc1=O
CCCc1cc(=O)oc2c3c(ccc12)OCN(Cc1ccccc1OC)C3
CCN(CC)C(=O)Cn1c(=O)n(CCCCCC(=O)NCc2ccc3c(c2)OCO3)c(=O)c2sccc21
CCOc1ccc(CNC(=O)c2oc3c(c2C)-c2nn(Cc4cccc(Cl)c4)cc2CC3)cc1
CCCCOc1ccccc1C1CC(=O)Nc2ccc3ccccc3c21 (stereo unspecified)
COCCCn1c(=O)c2sccc2n2c(CCCC(=O)NCc3cccc(OC)c3)nnc12
Cc1ccc(N(C)C(=O)c2sc3nc4n(c(=O)c3c2C)CCCC4)cc1C
NC(=O)C1CCN(S(=O)(=O)c2cc3c(cc2Cl)NC(=O)CO3)CC1
CCN1C(=O)c2ccccc2S(=O)(=O)c2ccc(C(=O)NCc3ccccc3)cc21
CCOc1ccc(NS(=O)(=O)c2c(C)nc3sc(C)c(C)n3c2=O)cc1
CC(C)N(Cc1ccccc1)C(=O)c1nc(-c2ccc(Cl)cc2)n2c1CCCCC2
COc1cccc(NC(=O)c2c(C)nn(-c3cccc(C)c3)c2-n2cccc2)c1
Cc1cc(NC(=O)N2CCC(CN3CCCCCC3)CC2)ccc1Br
CCC1Sc2ccccc2N(CC(=O)NCc2ccc(C)cc2)C1=O (stereo unspecified)
COc1ccc(CCNC(=O)CCc2cn(Cc3ccccc3Cl)c3ccccc23)c(OC)c1
